Reference: PubChem BioAssay AID463173 (ICCB-Longwood Screening Facility, Harvard Medical School, 2010)
About 4,300 (8.3%) of roughly 52,000 compounds were called active. No stated cut-off is given here; in the data, active means survival mostly below about 52% (no sharp cut-off); inactive means mostly above about 56%. The list shows a part of the results.

tested on: DeltatarO mutant; assay: S. aureus survival, RN4220 and DeltatarO strains – OD600, teichoic acid synthesis inhibitors, primary screen (AID 463173); details: S. aureus RN4220 wild type/DeltatarO growth, OD600, 18 h, stronger effect = lower value, screened at 18.75 µg/mL (by protocol)

Row | SMILES | survival
1 | COc1ccc(C)cc1NC(=O)Cn1cc(S(=O)(=O)Cc2ccccc2Cl)c2ccccc21 | inactive: 93%
2 | CCOc1cc2c(cc1OCC)C(c1c(F)cccc1Cl)CC(=O)N2 (stereo not given) | inactive: 74%
3 | Cc1cccc(NC(=O)Cn2c(C(F)(F)F)nc3ccccc32)c1C | active: 31%
4 | CCc1ccccc1NC(=O)c1nc(-c2ccncc2)no1 | inactive: 46%
5 | O=C(NCCc1csc2nc(-c3ccc(F)cc3)nn12)c1ccco1 | inactive: 104%
6 | COc1cc(C2C(C(=O)Nc3ccccc3)=C(C)Nc3nc(SCc4ccccc4F)nn32)cc(OC)c1OC (stereo not given) | inactive: 128%
7 | Cc1sc2c(c1C)c(=O)n(-c1ccc(Cl)cc1)c(=O)n2Cc1c(F)cccc1Cl | inactive: 83%
8 | CCOC(=O)c1c(S(=O)(=O)N2CCC(C(=O)N3CCN(c4cc(C)ccc4C)CC3)CC2)c(C)n(C)c1C | inactive: 75%
9 | CCOc1ccccc1CNS(=O)(=O)c1csc(C(N)=O)c1 | inactive: 68%
10 | CC1CCN(S(=O)(=O)c2cc(C(=O)Nc3ccc(Br)cc3F)n(C)c2)CC1 | inactive: 83%
11 | COC(=O)c1cc(NC(=O)CCc2c(C)nc3cc(-c4ccccc4)nn3c2C)cc(C(=O)OC)c1 | inactive: 118%
12 | Cc1ccc(-c2cc(C(=O)N3CCN(c4ccccc4)CC3)c3ccccc3n2)cc1C | inactive: 113%
13 | COc1ccc(N2CCN(C(=O)CS(=O)(=O)c3cccc4nsnc34)CC2)cc1 | inactive: 107%
14 | CC(=O)N1CCc2cc(Br)cc(S(=O)(=O)N3CCN(c4cccc(C)c4)C(C)C3)c21 (stereo not given) | inactive: 74%
15 | O=C(NCCc1csc(-c2cccnc2)n1)c1ccc(F)c(F)c1 | inactive: 118%
16 | CCCCN1CCc2nc(N3CCN(C)CC3)ncc2C1 | inactive: 72%
17 | CN(C)c1ccc(CNC(=O)CCCn2ccc3cc(S(=O)(=O)N4CCCC4)ccc32)cc1 | active: 8%
18 | COc1ccc(CCN2CCC(CNC(=O)c3cnn(-c4ccccc4)c3C3CCN(C(=O)OC(C)(C)C)CC3)CC2)cc1 | inactive: 69%
19 | Cc1nn(C(C)C(=O)NC2CCC(C)CC2)c(=O)c2cc3sccc3n12 (stereo not given) | inactive: 88%
20 | COc1cccc(N2CCN(S(=O)(=O)c3ccc4c(c3)CCCN4C(C)=O)CC2)c1 | inactive: 81%
21 | CCOC(=O)c1c(NC(=O)c2cc(=O)c3ccc(C)cc3o2)sc(C)c1C | inactive: 100%
22 | COc1ccc(Cl)cc1NC(=O)c1cc(C)nn1-c1ccccc1 | inactive: 67%
23 | Oc1ccc(NCc2ccc(OCc3ccccc3Cl)cc2)cc1 | active: 35%

Row | SMILES | survival
24 | O=C(CSc1nc(=O)n(Cc2cccnc2)c2c1CCC2)Nc1ccc(F)cc1F | inactive: 78%
25 | Cc1ccc(Cc2nc3ccccc3nc2SCC(=O)N2CCCCC2C)cc1 (stereo not given) | inactive: 94%
26 | CCN(CC)c1ncnc(Cl)c1Cc1ccc(OC)cc1 | inactive: 105%
27 | COC(=O)c1cccc(NC(=O)Nc2cc(C(=O)NCc3cccc(F)c3)ccc2N2CCCC2)c1 | inactive: 91%
28 | N#C/C(=C\c1c(Oc2ccc(Br)cc2)nc2ccccn2c1=O)c1nc2ccccc2s1 | inactive: 103%
29 | Fc1ccccc1-n1ncc2c1ncn1nc(Cc3ccccc3)nc21 | inactive: 74%
30 | Cc1ccc(C)c(N/C=C(\C#N)c2nc3ccccc3o2)c1 | inactive: 95%
31 | Cc1ccccc1NC(=O)CN(c1ccc(Cl)cc1Cl)S(=O)(=O)c1ccccc1 | inactive: 44%
32 | COc1ccc(-c2nc3sc(CCNC(=O)c4ccccc4C)c(C)n3n2)cc1 | inactive: 77%
33 | Cc1cn(C)c(CC(=O)N2CCN(c3ccccc3F)CC2)c1C(=O)O | inactive: 89%
34 | Cc1ccc2c(c1)-c1c(c(C(=O)N3CCN(c4cc(Cl)ccc4C)CC3)nn1C)CS2 | inactive: 69%
35 | CC(CNC(=O)CCS(=O)(=O)c1ccc2c(c1)oc(=O)n2C)c1ccccc1 (stereo not given) | inactive: 87%
36 | Cc1cccc(NC(=O)N2CCC(CN3CCOCC3)CC2)c1C | inactive: 86%
37 | CCOc1ccc(C2C(C(=O)Nc3ccc(Cl)cc3)=C(C)Nc3nc(C(F)(F)F)nn32)cc1 (stereo not given) | inactive: 51%
38 | COc1ccc(OC)c(S(=O)(=O)N2CC=C(c3c(C)n(CC(=O)N4CCCC4)c4ccccc34)CC2)c1 | inactive: 72%
39 | O=S(=O)(c1ccc(Cl)cc1)c1nnn2c1nc(N1CCCCC1)c1sccc12 | inactive: 52%
40 | COc1ccc(-c2cc(C(F)(F)F)n3nc(C(=O)NCC45CC6CC(CC(C6)C4)C5)cc3n2)cc1OC | inactive: 137%
41 | Cc1cccc(Cn2c(C)c(CNC3CCCCC3)c(C(=O)O)c2C)c1 | inactive: 90%
42 | CCOC(=O)c1ccccc1NC(=O)N1CCOc2ccc(Cl)cc21 | inactive: 99%
43 | CC1CCN(S(=O)(=O)c2ccc3c(c2)N(CC(=O)O)C(=O)CO3)CC1 | inactive: 94%
44 | CCc1ccccc1NC(=O)CSc1nc2c(oc3ccccc32)c(=O)n1-c1ccccc1F | inactive: 76%
45 | Cc1ccc(NC(=O)C(=O)NCC(c2cccnc2)N2CCN(Cc3ccccc3)CC2)cc1 (stereo not given) | inactive: 88%
46 | Cc1ccc2ccc3cc(C(=O)N4CCN(c5ccccc5)CC4)nc3c2[nH]1 | inactive: 120%

Row | SMILES | survival
47 | CC(=O)Nc1ccc(-c2nnc(SCC(=O)c3ccc([N+](=O)[O-])cc3)o2)cc1 | inactive: 66%
48 | O=C(Cn1nnc(-c2ccncc2)n1)NCCc1ccccc1 | inactive: 84%
49 | O=S(=O)(NCc1ccccc1Cl)c1ccc(N2CCCCS2(=O)=O)cc1 | inactive: 129%
50 | Cc1cccn2c(=O)c3cc(C(=O)N(Cc4ccccc4)C(C)C)sc3nc12 | inactive: 63%
51 | Cc1cccc(C(=O)Nc2nc(-c3nnn(-c4cc(F)ccc4F)c3C)ns2)c1 | inactive: 128%
52 | CCCCN(C)CCNC(=O)c1ccc2c(c1)NC(=O)CN2 | inactive: 71%
53 | Cc1c(C(=O)NCCc2ccc(S(N)(=O)=O)cc2)sc2nc3n(c(=O)c12)CCCC3 | inactive: 83%
54 | CC(C)N1CCc2c(sc(NC(=O)c3ccc(S(=O)(=O)N(C)C4CCCCC4)cc3)c2C(N)=O)C1 | inactive: 86%
55 | O=C(NCc1ccc(Cl)cc1)c1ccc(CNS(=O)(=O)c2ccc(F)cc2)cc1 | inactive: 83%
56 | COCCc1nn2c(=O)cc(COC(=O)c3ccco3)nc2s1 | inactive: 92%
57 | CCC1CCCCN1C1CC(=O)N(c2ccc(NC(C)=O)cc2)C1=O (stereo not given) | inactive: 96%
58 | Cc1ccccc1CNC(=O)C(=O)NCC(c1ccc2c(c1)OCO2)N1CCOCC1 (stereo not given) | inactive: 87%
59 | CCOc1ccc(-c2nnc(N(C(=O)C3CCC3)C(C)C)s2)cc1 | inactive: 101%
60 | Cc1ccc2c(c1)-c1c(cnn1CC(=O)N1CCN(c3cc(C)ccc3C)CC1)CO2 | inactive: 50%
61 | Cc1ccccc1S(=O)(=O)Cc1ccc(C(=O)NCCc2ccccc2)o1 | inactive: 76%
62 | Cc1n[nH]c(C)c1Cc1ccc(N)cc1 | inactive: 93%
63 | CC1CCN(c2csc3ccc(F)cc3c2=O)CC1 | inactive: 113%
64 | CCCN1CCN(CCCNC(=O)c2ccc3c(c2)sc2nc(-c4ccc(OCC)cc4)cn23)CC1 | active: 28%
65 | Cc1ccc(CN(CC(=O)NC2CCCC2)C(=O)CSc2nnc(COc3ccccc3)o2)cc1 | inactive: 80%
66 | CCOc1ccc(-c2cn3c(n2)sc2cc(C(=O)N4CCCC(C)C4)ccc23)cc1 (stereo not given) | inactive: 58%
67 | Cc1nc(N2CCOCC2)c2c(C(=O)N(C)c3ccccc3)c(C)oc2n1 | inactive: 64%
68 | CCC(Sc1nc2cc(OC)c(OC)cc2c(=O)n1Cc1ccc(OC)cc1)C(=O)NCCOC (stereo not given) | inactive: 92%
69 | O=C(CCN1CCCCC1)Nc1ccccc1 | inactive: 97%

Row | SMILES | survival
70 | O=C(Nc1ccccc1)C1CC(=O)N(c2ccccc2)C1 (stereo not given) | inactive: 89%
71 | CC(=O)c1ccc(NC(=O)c2cc(S(=O)(=O)N3CCOCC3)ccc2C)cc1 | active: 49%
72 | c1ccc2c(NCC3CCCO3)nc(N3CCCCC3)nc2c1 (stereo not given) | inactive: 111%
73 | CC(C)(C)c1ccc(C(=O)Nc2ccc(OCc3cc(=O)n4ccsc4n3)cc2)cc1 | inactive: 101%
74 | COc1ccc(CCNC(=O)c2ccc(Cn3c(=O)c4ccccc4n(Cc4ccc(F)cc4Cl)c3=O)cc2)cc1OC | inactive: 90%
75 | Cc1cc(N2CCN(c3ccccc3)CC2)n2cnnc2n1 | inactive: 93%
76 | Cc1c(Cl)cccc1NC(=O)CSc1nc(=O)[nH]c2c1CCCC2 | inactive: 68%
77 | COc1ccc(OC)c(NC(=O)Cn2ncc3c2-c2ccccc2OC3)c1 | inactive: 50%
78 | O=C(NCCc1ccc(Cl)cc1)C1(c2cccs2)CCOCC1 | inactive: 84%
79 | Cc1ccc(-n2c(=O)c3cccnc3n2CC(=O)Nc2ccc(C)cc2Cl)cc1 | inactive: 97%
80 | COc1ccc(NC(=O)c2ccccc2C(=O)N2CCCCC2)cc1 | inactive: 68%
81 | Cc1ccc(CNC(=O)CN2CCC(n3nnc4cc(C)ccc43)CC2)cc1 | inactive: 94%
82 | CC(C)c1ccc2nc(SCC(=O)NC(C)(C)C)c(C#N)cc2c1 | inactive: 90%
83 | c1ccc(CN(Cc2cccs2)C(c2cccs2)c2nnnn2C2CCCC2)cc1 (stereo not given) | inactive: 60%
84 | CCOC(=O)c1cc(-c2ccccc2)n(CC(=O)NCc2ccc(C)cc2)c1C | active: 37%
85 | CCOC(=O)c1c(C)oc2nc(C)nc(NCC3CCN(Cc4ccccc4C)CC3)c12 | inactive: 86%
86 | O=C(NCC(c1cccnc1)N1CCOCC1)C(=O)Nc1ccc(Cl)cc1 (stereo not given) | inactive: 87%
87 | O=C1CN(C(=O)c2ccc(S(=O)(=O)N3CCCCC3)cc2)C(c2ccc(F)cc2)c2cc(Cl)ccc2N1 (stereo not given) | inactive: 62%
88 | Cc1cccc(-c2nc(CS(=O)CC(=O)NCc3ccc(Cl)cc3)c(C)o2)c1 (stereo not given) | inactive: 61%
89 | O=C(NCCc1ccccc1)c1ccc(CSc2nc3cccnc3n2Cc2ccccc2F)cc1 | inactive: 91%
90 | COc1ccc(C2=C(C)C(=O)N(Cc3ccc(C(=O)Nc4ccc(F)cc4C)cc3)S2(=O)=O)cc1 | inactive: 61%
